Here are results for 143 sequences from the supplement of paper PMC3724861.

This is one part of the list. Some results are limits rather than exact numbers.

This assay has as its system T1, Caupolican (Caup) homeodomain DNA-binding domain.
T1 sequence: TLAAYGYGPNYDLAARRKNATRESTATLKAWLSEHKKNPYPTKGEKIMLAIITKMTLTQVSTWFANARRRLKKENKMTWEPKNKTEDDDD
In words: PBM E-score (8-mer, recovered from the published 9-mer minima) (E-score (dimensionless, -0.5 to 0.5)); Drosophila protein; higher = stronger relative binding preference, active = 0.31 or more. A digest of the protocol:
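Caup's homeodomain DNA-binding domain (residues 214-303) was made by in vitro transcription and translation and applied at 100 nM to custom-designed protein binding microarrays. Each value is an enrichment score that gives relative binding preference for a short DNA word, with higher meaning stronger. The 8-mer values were recovered from published 9-mer scores, each of which was the minimum of its two constituent 8-mer scores. A cutoff of 0.31 marks candidate sites.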
With AACCGTCA, the “PBM E-score” value was inactive: -0.0665.
Take CTGGCGAC: the “PBM E-score” value was inactive: -0.142.
Consider ATATGCTA, for which the “PBM E-score” value is ≥ 0.143.
Take GCAAATAA: the “PBM E-score” value is inactive: 0.0737.
The value for CGTCTCTA was inactive: -0.133.
With GGAGGAGA the figure was inactive: -0.106; with CAAATTGC, inactive: 0.052.
With ACGCTGCT the figure was ≥ 0.0172.
Turning to GAACTAGA, the “PBM E-score” value was inactive: 0.0162.
As for CCTCCCAA, the “PBM E-score” value is inactive: -0.122.
For CTTGAATA, the “PBM E-score” value was inactive: 0.0667.
Take GACCAGTC: the “PBM E-score” value was inactive: -0.0802.
With ATGGTGAG the figure was inactive: -0.102; with AGGACAGA, inactive: 0.121; with AGCAATGG, inactive: -0.105.
With GCTTCTAC the figure was inactive: -0.0563; with CTCCGATA, inactive: -0.0748.
On to ATTTTATA, for which the “PBM E-score” value was inactive: 0.0952.
With AGTTGTAA the figure was inactive: 0.279; with ACTAGCAC, inactive: 0.00511.
The value for CCGGTGAC was inactive: -0.141; that for ACCCACGG was inactive: -0.149.
Consider AGGTTGTA, for which the “PBM E-score” value was active: ≥ 0.333.
The value for CCGCCTCG was inactive: -0.168; that for ACGTGGCA was inactive: -0.0482.
Take AAATGCGA: the “PBM E-score” value is inactive: 0.0277.
The value for GGCGACGA was inactive: -0.123; that for TTCATAAA was inactive: 0.00779.
With ACAGGAAC the figure was inactive: 0.201.
For CGGGCTTC, the “PBM E-score” value is inactive: -0.289.
AGTGTCGA: the “PBM E-score” value is inactive: 0.0933.
Consider GCATTGTA, for which the “PBM E-score” value was inactive: 0.175.
Turning to GACTTATA, the “PBM E-score” value was inactive: 0.0598.
The value for ATCTCGGA was inactive: -0.0126; that for ACACTACG was inactive: 0.0988.
With CAATTGTC the figure was inactive: 0.146; with CGTTCGAG, inactive: 0.0211; with ACCACGGC, inactive: -0.0751.
For AGGAGTCA, the “PBM E-score” value was ≥ 0.0172.
In the case of CGACGACA, the “PBM E-score” value is inactive: 0.154.
Consider AATGTCGA, for which the “PBM E-score” value was inactive: 0.212.
The value for GGAAGAAC was inactive: -0.0269; that for CTACTACA was inactive: 0.305; that for GAATTATA was inactive: 0.109.
With CGATTGAG the figure was inactive: -0.0857; with ACTATGAG, inactive: -0.0216; with CAACAGTG, inactive: 0.0433.
As to ACACCCCA, the “PBM E-score” value is inactive: 0.0326.
ATCCTCCA: the “PBM E-score” value is inactive: -0.0861.
The value for CTATAGGA was inactive: -0.00704; that for TCTGTTCA was inactive: 0.0822.
With GCTGTGAC the figure was inactive: -0.00278; with ACGACTAC, inactive: 0.106.
For the sequence TCTATTAA, the “PBM E-score” value was inactive: 0.0966.
The value for AGTCCAAG was inactive: -0.0262; that for GGAAAGAC was inactive: 0.00246; that for GAAATTTA was inactive: 0.11.
With ATAAAAGG the figure was inactive: 0.00438; with GCTGGTGA, inactive: -0.029; with CCTAAGCG, inactive: -0.109.
The value for AGGACAAC was inactive: 0.256.
In the case of GCGACCTA, the “PBM E-score” value was inactive: -0.0753.
The value for GCAATACC was inactive: 0.0155; that for GGCAAAAC was inactive: -0.0866.
In the case of CACGAAAC, the “PBM E-score” value was inactive: 0.148.
With CCGTGCCA the figure was inactive: -0.183; with TAATGGGA, inactive: 0.0253.
Regarding ATATAAGC, the “PBM E-score” value is inactive: 0.0632.
The value for ACATGCTC was active: 0.334; that for CCGACGCG was inactive: -0.167; that for TCATCCGA was inactive: 0.0623.
As for ACGATATA, the “PBM E-score” value is inactive: 0.128.
With CACAGAAG the figure was inactive: -0.0549; with CCTCCAAC, inactive: -0.102; with ATTATACA, inactive: 0.254.
Take CCGAACCG: the “PBM E-score” value was inactive: -0.138.
With AGCGACAT the figure was active: 0.325.
As for AAAACGAT, the “PBM E-score” value was inactive: 0.0884.
With CAAGGAGA, the “PBM E-score” value was inactive: -0.0609.
With CTTAAGTC, the “PBM E-score” value was inactive: -0.0706.
As for GAGGGACC, the “PBM E-score” value is inactive: -0.261.
The value for CAAATCGC was inactive: -0.0651; that for CAACAGCG was inactive: -0.02; that for CGGAGGAG was inactive: -0.115.
As for AACGCCCT, the “PBM E-score” value was inactive: -0.11.
The value for ACGCTCGG was inactive: -0.162.
Consider GGGGCCAC, for which the “PBM E-score” value was inactive: -0.333.
With ATTCGAAA the figure was inactive: 0.0724; with AGTTGGTC, inactive: -0.0686.
Consider GGATGCAC, for which the “PBM E-score” value is inactive: -0.106.
As to GCCGGCAC, the “PBM E-score” value is inactive: -0.193.
The value for AACTACGT was inactive: 0.151; that for GTTAGCCA was inactive: -0.0805; that for ACATATAA was active: 0.35.
The value for ATGACAGA was inactive: 0.22; that for ATTACAGG was inactive: 0.244; that for AAGGGAAC was inactive: -0.0296.
With ACGGCCGT the figure was inactive: -0.12; with GGACCGAA, ≥ -0.0312.
With ATCTAAGA, the “PBM E-score” value was inactive: -0.00199.
Consider ACGTAACA, for which the “PBM E-score” value was inactive: 0.263.
On to CGCAATAA, for which the “PBM E-score” value is inactive: -0.00715.
For CATAACGA, the “PBM E-score” value is inactive: 0.049.
TAGTGCAA: the “PBM E-score” value is inactive: 0.0661.
The value for CTTGCGGA was inactive: -0.0913; that for ATGTGTGC was inactive: 0.0887; that for ATATGGAA was inactive: 0.0946.
In the case of CGTCAAAA, the “PBM E-score” value was inactive: 0.0589.
Regarding AGCGCTTG, the “PBM E-score” value was inactive: -0.0194.
For GTGGTAAC, the “PBM E-score” value was inactive: 0.159.
Turning to ACCGGACG, the “PBM E-score” value is inactive: -0.193.
AAGAATGC: the “PBM E-score” value was inactive: 0.0231.
Consider CGTATTGA, for which the “PBM E-score” value is inactive: 0.141.
The value for ACCCTCCG was inactive: -0.163; that for CTGGTAGC was inactive: 0.0527.
CATAGTCG: the “PBM E-score” value was inactive: 0.1.
As to CAAGGACA, the “PBM E-score” value was inactive: 0.178.
With AACAACAG the figure was inactive: 0.243; with AATCGACG, inactive: 0.0185.
As to ACTATAAA, the “PBM E-score” value was inactive: 0.142.
For GGGCACTA, the “PBM E-score” value was inactive: -0.0959.
The value for ATATCTTG was inactive: 0.152; that for GAATATAC was inactive: 0.0945; that for CGATTGGA was inactive: -0.00693.
On to GTCGTCAA, for which the “PBM E-score” value is inactive: 0.125.
With AGTTCAGC, the “PBM E-score” value is inactive: -0.0564.
The value for ATGAAGTA was ≥ 0.0742; that for TAAAAATA was inactive: 0.114; that for CCTCACAA was inactive: -0.0288.
The value for AATCTCGT was inactive: 0.121; that for CTCAAAGA was inactive: -0.128; that for ATATGCAT was inactive: 0.0964.
GTATAGTA: the “PBM E-score” value was inactive: 0.161.
With AGCACATG, the “PBM E-score” value was inactive: 0.164.
For the sequence CAGGTCCC, the “PBM E-score” value was inactive: -0.178.
The value for AGAGTGTC was inactive: 0.0704; that for ACAGAAAG was inactive: 0.0934.
The value for GAAATAAC was inactive: 0.1.
For the sequence CACGAGTG, the “PBM E-score” value is inactive: 0.00087.
Take AACAGTGC: the “PBM E-score” value is inactive: 0.0664.
With GAGACAAA the figure was inactive: 0.0227.
On to CTTAATAA, for which the “PBM E-score” value is inactive: 0.0195.
With ACGGCTAA the figure was inactive: 1e-05.
